Reference: US10046060B2, “Co-administration of an agent linked to an internalization peptide with an anti-inflammatory” (NoNO Inc., priority 2007, dated 2018)

Tested on: rats
Assay: Mean arterial pressure (MAP) in rats after Tat peptides with or without anti-inflammatory agents
Settings: cromolyn 5 mg/kg i.v. about five minutes before Tat-NR2B9c; FIGS. 8A-D

Which “Effect on decline in MAP due to Tat-NR2B9c” value does the source give for `O=C(O)c1cc(=O)c2c(OCC(O)COc3cccc4oc(C(=O)O)cc(=O)c34)cccc2o1` [cromolyn, 5,5′-(2-hydroxypropane-1,3-diyl)bis(oxy)bis(4-oxo-4H-chromene-2-carboxylic acid)] here?
Its value is “significantly reduces the decline in MAP”.
